Measured values from the supplement of paper PMC8183993.
Values joined by “and” are separate entries in the source; they are usually repeats but may differ in a detail not shown here. Equal values may be shown once. Where a name gives a salt, the structure may show the parent alone. ± gives the standard deviation of the averaged measurements. In all, about 3,100 compounds were measured (“mean cytoplasmic OPP incorporation (global translation) relative to DMSO”: median about 100, lowest 2% from about 56 on). This is one part of the list. Square brackets hold non-standard residues; d marks the D form. Peptide text beside a SMILES is read from it. pGlu = O=C1CC[C@@H](C(=O)O)N1; Thz = O=C(O)[C@@H]1CSCN1

tested on: U2OS; assay: mean cytoplasmic OPP incorporation (global translation) relative to DMSO (% of DMSO); higher = more protein synthesis; conditions: 10 µM; 24 h
Protocol: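 Primary image-based screen in U2OS cells: compounds at 10 uM for 24 h, then a 1 h o-propargyl-puromycin (OPP) pulse, click labelling, and high-throughput microscopy. Mean cytoplasmic OPP intensity and nuclei count were normalised to DMSO wells within each plate (DMSO = 100) and averaged over triplicate plates.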

Row | SMILES | mean cytoplasmic OPP incorporation
1 | COc1ccc2c(Oc3ccc(NC(=O)c4c(C)n(CC(C)(C)O)n(-c5ccccc5)c4=O)nc3)ccnc2c1 | 112 ± 6.7
2 | Nc1nc2c(ncn2COC(CO)CO)c(=O)[nH]1 [Ganciclovir] | 102
3 | Cc1csc(-c2nnc(Nc3ccc(Oc4ncccc4-c4ccnc(N)n4)cc3)c3ccccc23)c1 | 111
4 | CCCCCCCCCCCCCCCC(=O)OC[C@H](O)[C@H]1OC(=O)C(O)=C1O [Ascorbyl palmitate] | 114
5 | N#C/C(=C\c1ccc(O)c(O)c1)C(=O)NCCCCc1ccccc1 | 87.8
6 | CCN(CC)C(=O)c1ccc(O)c(OC)c1 [Ethamivan] | 98.3
7 | Cc1noc(NS(=O)(=O)c2cccc3c(N(C)C)cccc23)c1C | 95.7
8 | NC(=O)Nc1cc(-c2cccc(F)c2)sc1C(=O)N[C@H]1CCCNC1 | 25.1
9 | O=C(c1ccc(F)cc1)C1CCN(CCn2c(=O)[nH]c3ccccc3c2=O)CC1 [Ketanserin tartrate] | 117
10 | O=C(c1ccc(F)cc1)C1CCN(CCn2c(=O)[nH]c3ccccc3c2=O)CC1 [Ketanserin tartrate hydrate] | 112
11 | Nc1nccc(Oc2ccc(NC(=O)c3c[nH]cc(-c4ccc(F)cc4)c3=O)cc2F)c1Cl | 100 ± 8.4
12 | Cc1nc2c(-c3cnc(N)nc3)nc(N3CCOCC3)nc2n1C(C)C | 59.6
13 | Clc1ccc2c(c1)CCc1cccnc1C2=C1CCNCC1 [Desloratadine] | 107
14 | O=C1NCC2(CCN(CCc3ccccc3)CC2)O1 [Fenspiride hydrochloride] | 91.6
15 | CCS(=O)(=O)N1CC(CC#N)(n2cc(-c3ncnc4[nH]ccc34)cn2)C1 | 95.7
16 | CN(C)CCOC(c1ccccc1)c1ccccc1.Cn1c(=O)c2[nH]c(Cl)nc2n(C)c1=O [Dimenhydrinate] | 94.4
17 | CN(CCCN1c2ccccc2CCc2ccccc21)CC(=O)c1ccc(Cl)cc1 [Lofepramine] | 105
18 | CC(=O)OCCN1C(=O)c2c(C)nc3ccc(S(=O)(=O)N4CCOCC4)cc3c2C1=O [Ivachtin] | 105
19 | Cc1cc2nc3c(=O)[nH]c(=O)nc-3n(C[C@H](O)[C@H](O)[C@H](O)CO)c2cc1C [Riboflavin (Vitamin B2)] | 103
20 | CCCOc1ccc2[nH]c(NC(=O)OC)nc2c1 [Oxibendazol] | 78.7
21 | CCCOc1ccc2[nH]c(NC(=O)OC)nc2c1 [Oxibendazole] | 98.5
22 | O=C1NC(=O)c2cc(Nc3ccccc3)c(Nc3ccccc3)cc21 | 104
23 | CC(=O)O[C@@H]1C[C@H]2C(C)(C)C(=O)C=C[C@]2(C)[C@H]2CC[C@@]3(C)[C@H](c4ccoc4)OC(=O)[C@H]4O[C@]43[C@@]21C [Gedunin] | 113
24 | O=C(O)CCc1ccc(NCc2cccc(Oc3ccccc3)c2)cc1 | 99.2
25 | CC1CCN(CC[C@H]2CCCN2S(=O)(=O)c2cccc(O)c2)CC1 | 94 and 107
26 | Nc1ncnc2c1ncn2[C@@H]1O[C@H](CO)[C@@H](O)[C@@H]1O [Vidarabine] | 97.8

Row | SMILES | mean cytoplasmic OPP incorporation
27 | CCOc1nc2cccc(C(=O)O)c2n1Cc1ccc(-c2ccccc2-c2nnn[nH]2)cc1 [Candesartan] | 95.3
28 | CCOc1nc2cccc(C(=O)O)c2n1Cc1ccc(-c2ccccc2-c2nnn[nH]2)cc1 [Candesartan (Atacand)] | 103
29 | O=c1[nH]cnc2nc[nH]c12 [Hypoxanthine] | 103
30 | C=CC(=O)Nc1cccc(Oc2nc(Nc3ccc(N4CCN(C)CC4)cc3)ncc2Cl)c1 | 64.9
31 | O=C[C@@H]1CCCN1C(=O)[C@@H]1CCCN1C(=O)OCc1ccccc1 [Z-Prolyl-prolinal] | 98
32 | C[C@@](Cc1ccc(O)c(O)c1)(NN)C(=O)O [Carbidopa] | 96.6
33 | NC[C@@H]1O[C@H](C23CC4CC(CC(C4)C2)C3)Cc2c1ccc(O)c2O | 95.8
34 | CN(C)CCC(c1ccc(Br)cc1)c1ccccn1 (stereo not drawn) [Brompheniramine maleate] | 97.8
35 | COc1ccc(Cl)cc1NC(=O)Nc1cc(C)nc2ccccc12 | 106 ± 1.7
36 | Oc1c(Cl)cc(Cl)c2cccnc12 [Chloroxine] | 99.6
37 | c1ccc(-c2ccc(C(c3ccccc3)n3ccnc3)cc2)cc1 (stereo not drawn) [Bifonazole] | 104
38 | O=C1CC[C@@H](C(=O)N2CSC[C@H]2C(=O)O)N1 [Pidotimod] ([pGlu]-[Thz]-OH) | 101
39 | CCCCc1oc2ccc(NS(C)(=O)=O)cc2c1C(=O)c1ccc(OCCCN(CCCC)CCCC)cc1 [Dronedarone HCl (Multaq)] | 132
40 | CCC1(c2ccccc2)C(=O)NCNC1=O [Primidone] | 99.2 ± 3.7
41 | CCCCCCCCCC(=O)N[C@@H](Cc1c[nH]c2ccccc12)C(=O)N[C@H](CC(N)=O)C(=O)N[C@@H](CC(=O)O)C(=O)N[C@@H]1C(=O)NCC(=O)N[C@@H](CCCN)C(=O)N[C@@H](CC(=O)O)C(=O)N[C@H](C)C(=O)N[C@@H](CC(=O)O)C(=O)NCC(=O)N[C@H](CO)C(=O)N[C@@H]([C@H](C)CC(=O)O)C(=O)N[C@@H](CC(=O)c2ccccc2N)C(=O)O[C@@H]1C [Daptomycin] | 101
42 | CC(=O)OC[C@H]1O[C@@H]([S-])[C@H](OC(C)=O)[C@@H](OC(C)=O)[C@@H]1OC(C)=O.CCP(CC)CC.[Au+] [Auranofin] | 10.4
43 | COc1cc(Nc2c(C#N)cnc3cc(OCCCN4CCN(C)CC4)c(OC)cc23)c(Cl)cc1Cl [Bosutinib (SKI-606)] | 99.8 ± 9.9
44 | C=CC(=O)Nc1cccc(Sc2nc(Nc3ccc(N4CCN(C)CC4)cc3)ncc2Cl)c1 | 57.4
45 | Cn1c(=O)c2c(ncn2CC2OCCO2)n(C)c1=O [Doxofylline] | 107
46 | Oc1cc2c(cc1O)C(c1ccccc1)CNCC2 (stereo not drawn) | 122
47 | COCC(=O)NC/C=C/c1ccc2ncnc(Nc3ccc(Oc4ccc(C)nc4)c(C)c3)c2c1 | 110
48 | CCCc1cc(C)[nH]c(=O)c1CNC(=O)c1cc(-c2ccnc(N3CCN(C)CC3)c2)cc2c1cnn2C(C)C | 112
49 | CC(=O)N(CC(O)CO)c1c(I)c(C(=O)NCC(O)CO)c(I)c(C(=O)NCC(O)CO)c1I (stereo not drawn) [Iohexol] | 99.8
50 | CN(CCCCCCCCCCN(C)C(=O)Oc1cccc([N+](C)(C)C)c1)C(=O)Oc1cccc([N+](C)(C)C)c1 [Demecarium bromide] | 87.8
51 | COC(=O)Nc1nc2cc(Sc3ccccc3)ccc2[nH]1 [Fenbendazole (Panacur)] | 87.8
52 | COC(=O)Nc1nc2cc(Sc3ccccc3)ccc2[nH]1 [Fenbendazole] | 59

Row | SMILES | mean cytoplasmic OPP incorporation
53 | CC(C)(C)c1cc(C(C)(C)C)c(NC(=O)c2c[nH]c3ccccc3c2=O)cc1O [Ivacaftor (VX-770)] | 105
54 | Cc1ccc([C@@H]2O[C@H](CO)[C@@H](O)[C@H](O)[C@H]2O)cc1Cc1ccc(-c2ccc(F)cc2)s1 [Canagliflozin] | 104
55 | CC(C)NC[C@@H](C(=O)N1CCN(c2ncnc3c2[C@H](C)C[C@H]3O)CC1)c1ccc(Cl)cc1 [Ipatasertib (GDC-0068)] | 98.3
56 | CC(C)NC[C@@H](C(=O)N1CCN(c2ncnc3c2[C@H](C)C[C@H]3O)CC1)c1ccc(Cl)cc1 | 100
57 | CN1CCN(CC(=O)N2c3ccccc3C(=O)Nc3cccnc32)CC1 [Pirenzepine dihydrochloride] | 102
58 | O=C(c1ccc(F)cc1)N1CCC[C@H](c2nc(-c3ccc(F)cc3)no2)C1 | 95.8
59 | Cc1cccc(Nc2ccncc2S(=O)(=O)NC(=O)NC(C)C)c1 [Torsemide] | 99.6
60 | COc1cc2c(cc1OC)-c1c/c(=N\c3c(C)cc(C)cc3C)n(C)c(=O)n1CC2 [Trequinsin hydrochloride] | 104
61 | CC1(C)O[C@@H]2[C@@H](CO[C@@]3(COS(N)(=O)=O)OC(C)(C)O[C@@H]23)O1 [Topiramate] | 99.83 ± 0.64
62 | CC[C@H](C)[C@H](N)C(=O)N1CCSC1 [P32/98 hemifumarate salt] | 107
63 | CC[N+](CC)(CC(=O)Nc1c(C)cccc1C)Cc1ccccc1 [Denatonium benzoate] | 113
64 | COc1cc(NS(=O)(=O)c2ccc(N)cc2)nc(OC)n1 [Sulfadimethoxine] | 106
65 | CCNc1nc(Nc2cc(F)c(C(=O)N3CCOCC3)cc2OC)ncc1C(F)(F)F | 115
66 | CN(C)c1cc(NC(=O)CNC(C)(C)C)c(O)c2c1C[C@H]1C[C@H]3[C@H](N(C)C)C(O)=C(C(N)=O)C(=O)[C@@]3(O)C(O)=C1C2=O [Tigecycline] | 101
67 | O=C1Nc2ccc(I)cc2/C1=C/c1cc(Br)c(O)c(Br)c1 | 102 and 114
68 | O=C1N=C(O)NC1(c1ccccc1)c1ccccc1 [Phenytoin sodium (Dilantin)] | 105
69 | CN(C)c1ccc(-c2nc3ncc(Cl)c(N4CCN(CC(=O)Nc5nccs5)CC4)c3[nH]2)cc1 | 100
70 | Clc1cccc(Nc2nnc(-c3ccccc3)c3ccccc23)c1 | 103
71 | CC(C)Cn1cnc2c(N)nc3ccccc3c21 [Imiquimod] | 107 ± 8.2
72 | Cc1nc2ccc(NC(=O)Nc3ccnc4cccnc34)cc2o1 | 103
73 | Oc1nc(-c2ccc(C(F)(F)F)cc2)nc2c1CSCC2 | 103 and 101
74 | NC(=O)N1c2ccccc2CC(=O)c2ccccc21 [Oxcarbazepine] | 99.6
75 | Cc1cc(C#N)cc(C)c1Oc1nc(Nc2ccc(C#N)cc2)nc(N)c1Br [Etravirine (TMC125)] | 89.4
76 | Cn1cncc1[C@@](N)(c1ccc(Cl)cc1)c1ccc2c(c1)c(-c1cccc(Cl)c1)cc(=O)n2C [Tipifarnib (Zarnestra)] | 98.1
77 | Cc1nnc(SCC2=C(C(=O)O)N3C(=O)[C@@H](NC(=O)Cn4cnnn4)[C@H]3SC2)s1 [Cefazolin sodium salt] | 105
78 | O=c1[nH]c(=O)n([C@H]2C[C@H](O)[C@@H](CO)O2)cc1C(F)(F)F [Trifluridine] | 111
